Measured values taken from the supplement of paper PMC10369915.
The list shows a part of the results. No stated cut-off is given here; in the data, active = 3.2 or more and inactive = the rest. Only a few entries rise above the background.

Experiments:
Experiment in all cases: enrichment score (SH2-bound / input frequency) (ratio); bacterial display of known human phosphotyrosine sites (pTyr-Var adds point mutants) read by sequencing; higher = stronger binding; tyrosines were phosphorylated by kinases first
Settings in all cases: peptide library: Human pTyr
SHP2 C-SH2 domain E139D = target: SHP2 C-SH2 domain E139D
[1] = target: SHP2 C-SH2 domain wild-type
SHP2 N-SH2 domain L43F = target: SHP2 N-SH2 domain L43F
SHP2 N-SH2 domain T42A = target: SHP2 N-SH2 domain T42A
SHP2 N-SH2 domain T52S = target: SHP2 N-SH2 domain T52S
[2] = target: SHP2 N-SH2 domain wild-type

Measured: enrichment score
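Further: displayed peptides selected on beads carrying the immobilized SH2 domain, with library peptides lacking any tyrosine serving as negative controls.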

NKAKAQYYLDLEKQL [MNS1_HUMAN_188]
inactive: SHP2 C-SH2 domain E139D 1.3 | [1] 1.05 | SHP2 N-SH2 domain L43F 0.891 | SHP2 N-SH2 domain T42A 0.995 | SHP2 N-SH2 domain T52S 1.02 | [2] 1.21

NKAKAQAYLDLEKQL [MNS1_HUMAN_188_YA]
inactive: SHP2 C-SH2 domain E139D 1.18 | [1] 1.01 | SHP2 N-SH2 domain L43F 0.982 | SHP2 N-SH2 domain T42A 1.09 | SHP2 N-SH2 domain T52S 1.21 | [2] 1.49

GILNDDIYCPPETAV [MOES_HUMAN_116]
inactive: SHP2 C-SH2 domain E139D 0.825 | [1] 0.784 | SHP2 N-SH2 domain L43F 0.87 | SHP2 N-SH2 domain T42A 0.681 | SHP2 N-SH2 domain T52S 0.819 | [2] 0.865

NKSESVVYADIRKNG [MPZL1_HUMAN_263]
inactive: SHP2 N-SH2 domain L43F 1.12 | SHP2 N-SH2 domain T52S 1.01 | [2] 1.07
active: SHP2 C-SH2 domain E139D 19 | [1] 24.2 | SHP2 N-SH2 domain T42A 3.91

KQPVKVVYSSKDPAQ [MRP1_HUMAN_277]
inactive: SHP2 C-SH2 domain E139D 1.37 | [1] 1.19 | SHP2 N-SH2 domain L43F 1.19 | SHP2 N-SH2 domain T42A 1.27 | SHP2 N-SH2 domain T52S 1.21 | [2] 1.91

EQSTRMQYIERSALR [ANKK1_HUMAN_178]
inactive: SHP2 C-SH2 domain E139D 0.886 | [1] 0.695 | SHP2 N-SH2 domain L43F 0.619 | SHP2 N-SH2 domain T42A 0.555 | SHP2 N-SH2 domain T52S 0.702 | [2] 0.758

SMDEGDDYLPATTPA [MTAP2_HUMAN_745]
inactive: SHP2 C-SH2 domain E139D 0.925 | [1] 0.666 | SHP2 N-SH2 domain L43F 0.791 | SHP2 N-SH2 domain T42A 0.778 | SHP2 N-SH2 domain T52S 0.901 | [2] 1.09

SSTDRSPYEKVSAGN [MUC1_HUMAN_1229]
inactive: SHP2 C-SH2 domain E139D 0.634 | [1] 0.655 | SHP2 N-SH2 domain L43F 0.623 | SHP2 N-SH2 domain T42A 0.871 | SHP2 N-SH2 domain T52S 0.622 | [2] 0.863

FGLSRNIYSADAAKA [MUSK_HUMAN_751_YA]
inactive: SHP2 C-SH2 domain E139D 0.461 | [1] 0.525 | SHP2 N-SH2 domain L43F 0.704 | SHP2 N-SH2 domain T42A 0.609 | SHP2 N-SH2 domain T52S 0.503 | [2] 0.548

SEDRDLLYSIDAYRS [ANLN_HUMAN_671]
inactive: SHP2 C-SH2 domain E139D 0.554 | [1] 0.509 | SHP2 N-SH2 domain L43F 0.556 | SHP2 N-SH2 domain T42A 0.578 | SHP2 N-SH2 domain T52S 0.637 | [2] 0.589

DNTSRPRYSHSYLSD [MY18A_HUMAN_2035]
inactive: SHP2 C-SH2 domain E139D 0.65 | [1] 0.681 | SHP2 N-SH2 domain L43F 0.817 | SHP2 N-SH2 domain T42A 0.67 | SHP2 N-SH2 domain T52S 0.665 | [2] 0.775

DNTSRPRYSHSALSD [MY18A_HUMAN_2035_YA]
inactive: SHP2 C-SH2 domain E139D 0.673 | [1] 0.636 | SHP2 N-SH2 domain L43F 0.731 | SHP2 N-SH2 domain T42A 0.658 | SHP2 N-SH2 domain T52S 0.698 | [2] 0.729

CDEEENFYQQQQQSE [MYC_HUMAN_32]
inactive: SHP2 C-SH2 domain E139D 1.54 | [1] 1.15 | SHP2 N-SH2 domain L43F 0.837 | SHP2 N-SH2 domain T42A 1.11 | SHP2 N-SH2 domain T52S 1.07 | [2] 1.27

EVADKAAYLQNLNSA [MYH1_HUMAN_389]
inactive: SHP2 C-SH2 domain E139D 0.706 | [1] 0.647 | SHP2 N-SH2 domain L43F 0.709 | SHP2 N-SH2 domain T42A 0.618 | SHP2 N-SH2 domain T52S 0.707 | [2] 0.698

YAITDTAYRSMMQDR [MYH9_HUMAN_158]
inactive: SHP2 C-SH2 domain E139D 0.951 | [1] 2.04 | SHP2 N-SH2 domain L43F 0.733 | SHP2 N-SH2 domain T42A 0.637 | SHP2 N-SH2 domain T52S 0.761 | [2] 0.75

AAITDTAYRSMMQDR [MYH9_HUMAN_158_YA]
inactive: SHP2 C-SH2 domain E139D 0.695 | [1] 0.681 | SHP2 N-SH2 domain L43F 0.78 | SHP2 N-SH2 domain T42A 0.741 | SHP2 N-SH2 domain T52S 0.784 | [2] 0.707

KNKDTGTYEDFVEGL [MYL3_HUMAN_130]
inactive: SHP2 C-SH2 domain E139D 1.04 | [1] 0.779 | SHP2 N-SH2 domain L43F 0.834 | SHP2 N-SH2 domain T42A 0.793 | SHP2 N-SH2 domain T52S 0.858 | [2] 0.891

FACLSPGYYSPDYGL [ANR11_HUMAN_1850]
inactive: SHP2 C-SH2 domain E139D 1.31 | [1] 1.23 | SHP2 N-SH2 domain L43F 1.26 | SHP2 N-SH2 domain T42A 1.38 | SHP2 N-SH2 domain T52S 1.58 | [2] 1.9

DGTFDNIYLHVQISN [NAA50_HUMAN_110]
inactive: SHP2 C-SH2 domain E139D 1.37 | [1] 1.28 | SHP2 N-SH2 domain L43F 1.57 | SHP2 N-SH2 domain T42A 1.18 | SHP2 N-SH2 domain T52S 1.9 | [2] 1.6

GNLDGLEYKLHDFGY [NAMPT_HUMAN_188]
inactive: SHP2 C-SH2 domain E139D 0.604 | [1] 0.547 | SHP2 N-SH2 domain L43F 0.494 | SHP2 N-SH2 domain T42A 0.612 | SHP2 N-SH2 domain T52S 0.491 | [2] 0.552

ICGPEENYPSLQMSS [NANOG_HUMAN_35]
inactive: SHP2 C-SH2 domain E139D 1.25 | [1] 0.942 | SHP2 N-SH2 domain L43F 1.23 | SHP2 N-SH2 domain T42A 0.893 | SHP2 N-SH2 domain T52S 1.06 | [2] 1.06

STSLDTLYTSSSPSE [NCKIPSD_HUMAN_227]
inactive: SHP2 C-SH2 domain E139D 0.561 | [1] 0.462 | SHP2 N-SH2 domain L43F 0.488 | SHP2 N-SH2 domain T42A 0.571 | SHP2 N-SH2 domain T52S 0.578 | [2] 0.38

GPLGGSSYEEEEEEE [NECT1_HUMAN_436]
inactive: SHP2 C-SH2 domain E139D 1.04 | [1] 1.04 | SHP2 N-SH2 domain L43F 1.02 | SHP2 N-SH2 domain T42A 0.988 | SHP2 N-SH2 domain T52S 1 | [2] 1.31

KPFENGQYLDIAGIT [NEGR1_HUMAN_187_YA]
inactive: SHP2 C-SH2 domain E139D 0.852 | [1] 0.574 | SHP2 N-SH2 domain L43F 0.656 | SHP2 N-SH2 domain T42A 0.666 | SHP2 N-SH2 domain T52S 0.732 | [2] 0.853

AEQEELHYIPIRVLG [NEK9_HUMAN_52]
inactive: SHP2 C-SH2 domain E139D 1.24 | [1] 1.01 | SHP2 N-SH2 domain L43F 1.01 | SHP2 N-SH2 domain T42A 0.795 | SHP2 N-SH2 domain T52S 1.13 | [2] 1.37

DGGNAHVYENGSLEI [NFASC_HUMAN_481_YA]
inactive: SHP2 C-SH2 domain E139D 0.95 | [1] 0.767 | SHP2 N-SH2 domain L43F 0.823 | SHP2 N-SH2 domain T42A 0.808 | SHP2 N-SH2 domain T52S 0.762 | [2] 0.717

ACLSPGYYSPDYGLP [ANR11_HUMAN_1851]
inactive: SHP2 C-SH2 domain E139D 1.08 | [1] 1.14 | SHP2 N-SH2 domain L43F 1.06 | SHP2 N-SH2 domain T42A 0.789 | SHP2 N-SH2 domain T52S 1.12 | [2] 1.18

NSLNTDDYGGGGGGG [A17_VAR67_203]
inactive: SHP2 C-SH2 domain E139D 0.565 | [1] 0.577 | SHP2 N-SH2 domain L43F 0.534 | SHP2 N-SH2 domain T42A 0.49 | SHP2 N-SH2 domain T52S 0.531 | [2] 0.64

TTSDTEVYGEFYPVP [NFIP2_HUMAN_167]
inactive: SHP2 C-SH2 domain E139D 0.624 | [1] 0.92 | SHP2 N-SH2 domain L43F 0.52 | SHP2 N-SH2 domain T42A 0.509 | SHP2 N-SH2 domain T52S 0.583 | [2] 0.793

TEVYGEFYPVPPPYS [NFIP2_HUMAN_171]
inactive: SHP2 C-SH2 domain E139D 0.867 | [1] 0.549 | SHP2 N-SH2 domain L43F 0.528 | SHP2 N-SH2 domain T42A 0.808 | SHP2 N-SH2 domain T52S 0.686 | [2] 0.694

FAPVPPPYSVATSLP [NFIP2_HUMAN_177_YA]
inactive: SHP2 C-SH2 domain E139D 0.617 | [1] 0.674 | SHP2 N-SH2 domain L43F 0.646 | SHP2 N-SH2 domain T42A 0.656 | SHP2 N-SH2 domain T52S 0.846 | [2] 0.654

ARSAASSYSAPVSSS [NFL_HUMAN_43_YA]
inactive: SHP2 C-SH2 domain E139D 0.563 | [1] 0.503 | SHP2 N-SH2 domain L43F 0.572 | SHP2 N-SH2 domain T42A 0.497 | SHP2 N-SH2 domain T52S 0.582 | [2] 0.54

IEQIGLLYQEARDKS [NGEF_HUMAN_179_YA]
inactive: SHP2 C-SH2 domain E139D 0.823 | [1] 0.638 | SHP2 N-SH2 domain L43F 0.664 | SHP2 N-SH2 domain T42A 0.652 | SHP2 N-SH2 domain T52S 0.607 | [2] 0.632

FDEIELAYRRRPPRS [NMDE2_HUMAN_1109]
inactive: SHP2 C-SH2 domain E139D 0.477 | [1] 0.403 | SHP2 N-SH2 domain L43F 0.543 | SHP2 N-SH2 domain T42A 0.856 | SHP2 N-SH2 domain T52S 0.645 | [2] 0.534

YTLLNENYVEDDDNM [NMT1_HUMAN_180]
inactive: SHP2 C-SH2 domain E139D 1.2 | [1] 0.951 | SHP2 N-SH2 domain L43F 1.01 | SHP2 N-SH2 domain T42A 0.761 | SHP2 N-SH2 domain T52S 0.922 | [2] 1.26

VVGGCQEYTGAPAFA [NNRD_HUMAN_85_YA]
inactive: SHP2 C-SH2 domain E139D 1.11 | [1] 1.07 | SHP2 N-SH2 domain L43F 0.991 | SHP2 N-SH2 domain T42A 1.02 | SHP2 N-SH2 domain T52S 1.03 | [2] 1.08
